Measurements taken from the supplement of paper PMC11417369.
± gives the standard deviation of the averaged measurements. Some of the results follow.

tested on: PfAP2-G AP2 domain (GST-tagged); assay: gcPBM binding intensity (ln(normalized median fluorescence intensity)); higher = stronger DNA binding
Outline: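 The highest Masliner-normalised natural-log median intensity across replicate spots of either probe orientation is reported as binding intensity. GST-tagged P. falciparum DNA-binding domains expressed in E. coli were applied for 1 h to an Agilent 4 × 180k array of primer-extended double-stranded 36-bp intergenic genomic probes plus negative controls, and bound protein was detected with Alexa488 anti-GST antibody and scanned at 488 nm.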

| Sequence | gcPBM binding intensity (ln) |
| --- | --- |
| TTTAAATAATCTAGGTGTACTTTCCTTTATAAATGT [XGTACX_site7859] | 11.3 ± 0.83 |
| AGAATACATATATGAACACACAGAGTTTTAAAAAAT [CACACA_site2735] | 10.1 ± 0.13 |
| AATATAAATAAAAACACACACAATGGTACCTATATA [CACACA_site7688] | 10.8 ± 0.47 |
| TCAATATAAATTAGTTGTACAGTTTTTTTTAATTAT [XGTACX_site6358] | 11.5 ± 0.92 |
| TATTTCAATATATACCTTTGCTTTTTTAATATACTT [XGTACX_negctrl_site556] | 9.975 ± 0.078 |
| ATATACTTTTTTTTTTTTTTTTTAACGTTATTTATG [CACACA_negctrl_site1277] | 10.1 ± 0.22 |
| AAAATATATGAAAACAGTACATATAAAAATTAAAAA [XGTACX_site2594] | 10.8 ± 0.6 |
| TTACACATATATATAAATATATATAAATATATATAT [CACACA_negctrl_site150] | 9.58 ± 0.028 |
| ATTAATTTTGGTTCATGTACATAAGAAATAAACTCT [XGTACX_site4534] | 11.3 ± 0.63 |
| ATTTTTATACGTTTTTTTTTTTTTTTTTTTTATTTA [CACACA_negctrl_site1142] | 9.89 ± 0.2 |
| GAAAAGCATAGATGCACACATATATATATATATATA [CACACA_site2169] | 10.1 ± 0.4 |
| GTGTTAATTTTAAATTGTACAAAATTTATATGATTT [XGTACX_site348] | 10.8 ± 0.43 |
| TATTTGTTTGAATTTTTTTTTTTTTTTTTTTATGTG [CACACA_negctrl_site966] | 9.685 ± 0.007 |
| TACAGACAGAAATGCACACACATATATATATATATA [CACACA_site2283] | 10 ± 0.19 |
| CACTACATTATGTCATAAATGCATACATAAACATAT [GTGCAC_negctrl_site513] | 10.2 ± 0.28 |
| TTTATATTTCAATTTTGTGCTTCGCAAATTGAGAGG [TGCATGCA_negctrl_site327] | 9.77 ± 0.12 |
| TATAACATAATATAGACACACACATGTACTTATGCC [CACACA_site8547] | 11.4 ± 0.91 |
| ATTTATATGTGGAGCAGTACGCACTCTCACAATTAA [XGTACX_site7252] | 11.2 ± 0.93 |
| TAAAAATTATATATCACACATATATGTCAGTATACA [CACACA_site4624] | 9.91 ± 0.099 |
| AAAGAAAAAAAATATAAAAAATAAAAAATAAAACAA [CACACA_negctrl_site374] | 9.735 ± 0.021 |
| GATGTTCATCACTACACACACAAAGAAATATATATA [CACACA_site2684] | 10.1 ± 0.23 |
| TTGGTATAAAATTATAGTACATAAGGTAAATATAAA [XGTACX_site4698] | 11.1 ± 0.72 |
| TAATATATGTATATATGTACATATAAATGTTATAGA [XGTACX_site2721] | 11.2 ± 0.59 |

| Sequence | gcPBM binding intensity (ln) |
| --- | --- |
| CATTTAAAAGATAAAACACACATACTAATAAAAAAC [CACACA_site5417] | 10.2 ± 0.18 |
| TTTCTTTATTAAAATATTTTACATATATAATATACG [TGCATGCA_negctrl_site564] | 9.78 |
| GTAAAATATATAAAATGTACATATATTATATATATA [XGTACX_site489] | 11 ± 0.42 |
| ACTCTCTTATATTAAACACACATATATATCTGTATA [CACACA_site5489] | 10.2 ± 0.11 |
| ACATATATTATTATATGTACATATATTAATTATATA [XGTACX_site3400] | 11.4 ± 0.89 |
| ATCATTTTTAAAGGAACACACAAAAAAAATTAAAAT [CACACA_site4878] | 10.2 ± 0.12 |
| CTTCTCTTTTTTATCATGCACTTTTTGTATAATAAT [GTGCAC_site9834] | 10.3 ± 0.25 |
| CATTTTTTATTTCCTTGTACGAATAAAATATATTTA [XGTACX_site6844] | 11.1 ± 0.88 |
| TATTATCGTTCTCATACACACAAAATATACATACAC [CACACA_site2643] | 10.2 ± 0.22 |
| TACGTAAATGTGTGTGTGCACGTTATATATTAATAT [GTGCAC_site9976] | 10.5 ± 0.42 |
| AATTTAATATAATGCACACATAAAACAAAAACAAAA [CACACA_site529] | 10.1 ± 0.26 |
| TTATAATAATATAATACATGCATATATATTTAAATA [TGCATGCA_site903] | 9.62 ± 0.12 |
| AAATATATTTTATGTACACACAAAATTAAGGGATAT [CACACA_site4881] | 11.5 ± 0.81 |
| TGTTAATTATAAATTTGTACTTATTTTTACAAAATA [XGTACX_site6598] | 11.2 ± 0.87 |
| ATAAACATATAAAAAGTGCATATTCATATATCTACT | 9.94 ± 0.12 |
| AATACACTAAACAAAAGTACAAAAATATTCTACAAA [XGTACX_site5162] | 11.1 ± 0.84 |
| ATGGCCTCATTTGGGACACACAACATAAAATATATA [CACACA_site753] | 10.8 ± 0.64 |
| AAAAAAAAAAAAATCACACATAATATAGAATATGTA [CACACA_site4993] | 9.59 ± 0.11 |
| ATATATATATATATAACACACGCAAAAAAATTAAAT [CACACA_site8395] | 10.3 ± 0.34 |
| AACTTAAAAAATAAATGTACATAAATATAAACATAT [XGTACX_site2987] | 11.1 ± 0.59 |
| TATTTAAATTTTAAGTGTACATATTTATTTATATCT [XGTACX_site6545] | 11.4 ± 0.8 |
| TATAAAAATGGGCACACACACACATATATATATTTA [CACACA_site1527] | 10.7 ± 0.42 |
| TCACTATAATAATTTACACACATTTTAAGAAAATGT [CACACA_site3530] | 9.97 ± 0.085 |

| Sequence | gcPBM binding intensity (ln) |
| --- | --- |
| AAAATGAATAAAAATACACACATATCTGTTATTCTC [CACACA_site5474] | 9.74 ± 0.2 |
| GAATATTAATTCATACGTACTTATATATAAGTATAT [XGTACX_site3707] | 11.1 ± 0.59 |
| ATTTTTTTTTTTTTTTTTTTTTTATTCTTGTAATCT [CACACA_negctrl_site1039] | 9.575 ± 0.078 |
| ATATAATAATAAAGACGTACAAATGTATATATATAC [XGTACX_site3123] | 11.4 ± 0.87 |
| CCTTTTTATCTTTTTGTGCACAGACCTTTTTTAAAT | 10.8 ± 0.45 |
| ATGTAAGTTGTGCATTCACACACATATATATATATA [CACACA_site9086] | 10.3 ± 0.42 |
| AAAAAAAAAAAAAACATACACACAATAAAATAGGGG [CACACA_site2398] | 10.6 ± 0.26 |
| ACATAAATATAAACGTGTACATATATAAATATATAT [XGTACX_site7293] | 11.6 ± 0.95 |
| CATATATAAAAAAACACACACATATATATATATATA [CACACA_site1195] | 10.1 ± 0.37 |
| TATATTTTATATATGGTGCAACTTTTATTTAAATAA | 10.2 ± 0.4 |
| ATTTTTTTTTTTTATAGTGGATCCACATTTGCCATT [CACACA_negctrl_site1284] | 10.3 ± 0.36 |
| ATATATTTTAATTGTTGTACATATTAAATAAATAGG [XGTACX_site2311] | 11.4 ± 0.72 |
| TTACAAGTAAAAGGTACACACATTATAAATACAAAT [CACACA_site4752] | 11.4 ± 0.93 |
| ATGTATATGTCTATATGTACTTATATTTTATTTTTT [XGTACX_site5902] | 11.2 ± 0.95 |
| TGTTTTATCTTATATGCACACGATAAAAAAAAAAAA [CACACA_site2674] | 10.2 ± 0.41 |
| AAGAAAGACATTACGTGTACCAAACAACCTACCAAC [XGTACX_site4219] | 11.1 ± 0.58 |
| AAAATTAAACTCACACCACACACAAAAAAAAAAAAA [CACACA_site8131] | 10.1 ± 0.49 |
| ATTTACATAATAAAATGTACATTTATAAATATTATA [XGTACX_site1901] | 10.9 ± 0.51 |
| TACACTTTTTATGAAGTGCATGTATAGCTCTTAAAA [GTGCAC_site9595] | 9.915 ± 0.049 |
| TGAGTACACAATAATACATGCAATTCCTATGAATAT [TGCATGCA_site851] | 11.3 ± 1 |
| ATAAATATTAAAAGTACACACAGATACACTAATTAT [CACACA_site1808] | 11.6 ± 0.96 |
| ATATGACATAAAACATGTACATGTTCATAAATATAT [XGTACX_site1923] | 11.1 ± 0.5 |
| ATGCTCAGGAAAACATGTACAAAATTATTTGTTATA [XGTACX_site4306] | 10.8 ± 0.58 |

| Sequence | gcPBM binding intensity (ln) |
| --- | --- |
| CATTATTCATTTTGGATGCACTGACAGAAAAATGGT | 10.4 ± 0.18 |
| AGTTTTTATAAAAATAGTACATATTTATTAATCTGT [XGTACX_site5881] | 11.2 ± 0.64 |
| AAAATTGAACCTGACAAGGTATTTTATTATTTATTA [TGCATGCA_negctrl_site181] | 9.69 |
| TTCTATTTTAATATCTGTACATAATAAAGATCCATT [XGTACX_site1142] | 11.2 ± 0.74 |
| TTTTGTGCTTAAAAAAGTACAAAATATAAAAAAAAT [XGTACX_site7876] | 11.3 ± 0.88 |
| TGCAGTCTGGAGAAACGTACACAGTATCTGGTAACC [XGTACX_site2543] | 11.4 ± 0.99 |
| CCCACAGACGGACACACACACACACCGACACATATA [CACACA_site4356] | 11.5 ± 0.88 |
| TTATTTATTTATAATTGTACATTGCAAATGAATTTA [XGTACX_site4083] | 10.4 ± 0.3 |
| ATATATATATATATATGTACATAGAGAAGTATCTTT [XGTACX_site4737] | 11.2 ± 0.8 |
| TAATGTTACACAAACTTTTCATTCTTTTTAATAAAT [TGCATGCA_negctrl_site331] | 10.1 ± 0.16 |
| ATATAATTATAAAATAAACACACATATATATTTATA [CACACA_site8039] | 9.725 ± 0.078 |
| TATACACCCAGACACACACACACACCCAAAAAAAAA [CACACA_site497] | 10.4 ± 0.51 |
| TGTTGTTGTAATTATTGTACGTTATGCGATTATTAT [XGTACX_site7005] | 11.2 ± 0.83 |
| AACATTTTAAATTATACACACATTTTGAATATATAT [CACACA_site3470] | 9.93 ± 0.11 |
| AAAATATGTAGCTACACACACATAAACAAAATAACA [CACACA_site1007] | 10.2 ± 0.21 |
| GATATATTTTATATATGTACATACAAGGGTAAATAT [XGTACX_site1202] | 11.2 ± 0.66 |
| AAAATAAACTATAGTACACACTTATTATTATGAAAT [CACACA_site5488] | 11.2 ± 0.82 |
| TCAATTAGACGAAAATGTACATATGTATATATTTTT [XGTACX_site5027] | 10.8 ± 0.54 |
| AAGAAAAAATATACTTCACACATTTAATATATAATT [CACACA_site4919] | 9.92 ± 0.11 |
| AAAAAAAAAAAAAAATGTACAAATATATACATATAT [XGTACX_site935] | 10.9 ± 0.68 |
